{"source": "PubChem BioAssay AID1461", "about": "(National Center for Advancing Translational Sciences (NCATS), 2008)", "note": "About 2,300 (1%) of roughly 220,000 compounds were called active. Inconclusive means that the source gave no clear call. Such entries were picked first, then a sample of the others. The call rests on the fitted dose curve; in most records, active means well fitted inhibition curve with a large enough effect; inconclusive means small, poorly fitted or top-dose-only effect, or effect the other way; inactive means no such curve, though single readings can be large or run the other way. Where the call is inconclusive, the potency comes from a doubtful curve fit. On the % scale 0 is the no-effect control and ±100 the full control effect; potency means the concentration at half of the fitted maximal effect; tags describe the fitted curve by direction and shape.", "data": [{"target": "Neuropeptide S receptor (Homo sapiens) (UniProt Q6W5P4)", "sequence (Q6W5P4 whole entry, looked up)": "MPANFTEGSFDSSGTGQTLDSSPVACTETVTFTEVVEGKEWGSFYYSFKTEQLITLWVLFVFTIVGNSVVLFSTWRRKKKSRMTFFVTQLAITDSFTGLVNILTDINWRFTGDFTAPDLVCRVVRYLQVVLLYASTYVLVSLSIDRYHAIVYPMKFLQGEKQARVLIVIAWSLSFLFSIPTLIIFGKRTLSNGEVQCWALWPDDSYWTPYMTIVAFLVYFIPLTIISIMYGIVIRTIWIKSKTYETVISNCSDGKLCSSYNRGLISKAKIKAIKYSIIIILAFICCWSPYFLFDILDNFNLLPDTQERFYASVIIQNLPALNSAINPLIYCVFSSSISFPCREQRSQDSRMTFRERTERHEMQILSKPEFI", "assay": "qHTS Assay for Antagonists of the Neuropeptide S Receptor: cAMP Signal Transduction; further: nearly all actives have a fitted effect of over 50% in size", "settings": "CHO-NPSR cells, cAMP TR-FRET, antagonist mode; activity change, negative = inhibition: at 38.3 µM (top of the series) unless noted", "values": [{"smiles": "Fc1ccc(NC(=S)NC2CCCCC2)c(F)c1F", "Potency": "inactive"}, {"smiles": "O=C(COc1ccccc1O)Nc1ccccc1Cl", "Potency": "inactive"}, {"smiles": "CC(C)N(Cc1nc(-c2ccc(Cl)cc2)no1)C(=O)/C=C/c1ccccc1", "Potency": "inconclusive: 12.6 µM [inhibitor, single point]"}, {"smiles": "CCOc1ccc(NS(=O)(=O)c2ccc(NC(=S)NC(=O)C(C)C)cc2)cc1", "Potency": "inconclusive: 10 µM [inhibitor, single point]"}, {"smiles": "Oc1c(CN2CCc3ccccc3C2)cc(Cl)c2cccnc12", "Potency": "active: 6.31 µM"}, {"smiles": "CC(Sc1nc(NCc2ccccc2)nc(N2CCOCC2)n1)C(=O)Nc1ccccc1", "note": "(configuration not stated)", "Potency": "inconclusive: 10 µM [inhibitor, single point]"}, {"smiles": "c1ccc(C2=Nn3c(Cn4nnc5ccccc54)nnc3SC2)cc1", "Potency": "inactive"}, {"smiles": "COc1ccc(-c2nnc(NC(=O)Cc3ccccc3)s2)c(OC)c1", "Potency": "inconclusive: 12.6 µM [activator, single point]"}, {"smiles": "CCOC(=O)c1sc2nc(CSc3ccccc3)nc(N3CCCN(C)CC3)c2c1C", "Potency": "inconclusive: 7.94 µM [inhibitor, single point]"}, {"smiles": "COc1ccc(-n2nc3cc(C)c(NC(=S)NC(=O)c4ccccc4C)cc3n2)cc1", "Potency": "inconclusive: 25.1 µM [inhibitor, single point]"}, {"smiles": "CCOC(=O)CSc1nc2cc(C(=O)NCC3CCCO3)ccc2c(=O)n1Cc1ccco1", "note": "(configuration not stated)", "Potency": "inconclusive: 7.94 µM [inhibitor, single point]"}, {"smiles": "Cc1ccccc1C1CCCN(C(=O)c2cc(COc3c(F)cccc3F)on2)C1", "note": "(configuration not stated)", "Potency": "inconclusive: 10 µM [activator, partial curve]"}, {"smiles": "CCOc1cc(/C=N/NC(=O)COc2nc(C)cc(COC)c2C#N)ccc1O", "Potency": "inactive"}, {"smiles": "CCOc1cccc(N(C(=O)Cc2cccs2)C(C(=O)NC2CCCCC2)c2cccn2C)c1", "note": "(configuration not stated)", "Potency": "inconclusive: 10 µM [inhibitor, partial curve]"}, {"smiles": "Cc1nnc(SCc2nc3scc(-c4ccccc4)c3c(=O)[nH]2)s1", "Potency": "inactive"}, {"smiles": "COc1ccc2cc(C(c3nnnn3Cc3ccccc3)N3CCCCCC3)c(=O)[nH]c2c1", "note": "(configuration not stated)", "activity change, negative = inhibition": "inconclusive: -36.3% [inhibitor] [at 46.1 µM]"}, {"smiles": "CC(=O)N1CCC2(CC1)C(C#N)=C(N)Oc1n[nH]c(C(F)(F)F)c12", "Potency": "inconclusive: 0.02 µM [inhibitor, single point]"}, {"smiles": "Cc1ccc(Sc2nc(-c3ccccc3)nnc2C(F)(F)F)cc1", "Potency": "inconclusive: 25.1 µM [inhibitor, single point]"}, {"smiles": "O=C(/C(=C/O)N=Nc1ccccc1)c1cccs1", "Potency": "active: 10 µM"}, {"smiles": "CCOC(=O)CN/C=C(\\C#N)c1ccccc1", "Potency": "inactive"}, {"smiles": "COc1ccc(C(=O)NCc2ccc3[nH]c(C)cc3c2)cc1OC", "Potency": "inactive"}, {"smiles": "Cc1cc2cc(C(c3nnnn3CC3CCCO3)N3CCCc4ccccc43)c(=O)[nH]c2cc1C", "note": "(configuration not stated)", "Potency": "inconclusive: 25.1 µM [inhibitor, partial curve, poor fit]"}, {"smiles": "Cc1ccc(NC(=O)CN(C)CC(=O)Nc2ccccc2-c2ccccc2)cc1", "Potency": "inactive"}, {"smiles": "O=C(Cn1cc(C(F)(F)F)ccc1=O)N/N=C/c1ccccc1", "Potency": "inactive"}, {"smiles": "CC(C)CCN(C(=O)Nc1ccccc1)C(C)c1cccs1", "note": "(configuration not stated)", "Potency": "inconclusive: 25.1 µM [inhibitor, single point]"}, {"smiles": "O=C1c2ccccc2CC1Sc1nnc(-c2ccccn2)o1", "note": "(configuration not stated)", "Potency": "inconclusive: 15.8 µM [inhibitor, partial curve, poor fit]"}, {"smiles": "CCn1cc(C(=O)OC)c(=O)c2ccc(C)nc21", "Potency": "inactive"}, {"smiles": "COc1ccccc1N=Cc1c(O)c2ccccc2oc1=O", "Potency": "inconclusive: 10 µM [inhibitor, single point]"}, {"smiles": "Cc1oc(C(C)(C)C)cc1C(=O)N1CCN(c2ncccc2C(F)(F)F)CC1", "Potency": "inconclusive: 12.6 µM [activator, single point]"}, {"smiles": "COc1cc(CNc2ncnc3c2[nH]c2ccc(C)cc23)cc(OC)c1", "Potency": "inactive"}, {"smiles": "Cc1nc(SCC(=O)Nc2ccc(F)cc2)c2oc3ccccc3c2n1", "Potency": "inconclusive: 15.8 µM [activator, single point]"}, {"smiles": "Cc1ccc(Nc2cc(C)nn2-c2nc(C)cc(C)n2)cc1", "Potency": "active: 0.794 µM"}, {"smiles": "CCOc1cc(CNc2ccccc2)cc(Br)c1OCC(=O)NC(C)(C)C", "Potency": "inconclusive: 15.8 µM [inhibitor, single point]"}, {"smiles": "CCc1nnc(SCc2ccc(C(=O)OC)o2)n1N", "activity change, negative = inhibition": "inconclusive: -32.3% [inhibitor] [at 7.67 µM]"}, {"smiles": "CC(C)N(Cc1nc(-c2ccc(Cl)cc2)no1)C(=O)CCC1CCCC1", "Potency": "inconclusive: 3.98 µM [inhibitor, partial curve, poor fit]"}, {"smiles": "Cc1ccc(C)c(N2CCN(C(c3ccc(N(C)C)cc3)c3nnnn3C(C)(C)C)CC2)c1", "note": "(configuration not stated)", "Potency": "inconclusive: 7.94 µM [inhibitor, partial curve]"}, {"smiles": "COc1ccc(-c2c(C)nn3c(N)c(C#N)cnc23)cc1OC", "Potency": "inactive"}]}]}
